# Laboratory results taken from the supplement of paper PMC3334620.
# Whole data set: some 33,000 sequences, median “E-score (-0.5 to 0.5)” near -0.017, cut for the highest 2% near 0.3. Some of the results follow.
# Target: T1, Sut1 (UniProt P53032)
# T1 sequence: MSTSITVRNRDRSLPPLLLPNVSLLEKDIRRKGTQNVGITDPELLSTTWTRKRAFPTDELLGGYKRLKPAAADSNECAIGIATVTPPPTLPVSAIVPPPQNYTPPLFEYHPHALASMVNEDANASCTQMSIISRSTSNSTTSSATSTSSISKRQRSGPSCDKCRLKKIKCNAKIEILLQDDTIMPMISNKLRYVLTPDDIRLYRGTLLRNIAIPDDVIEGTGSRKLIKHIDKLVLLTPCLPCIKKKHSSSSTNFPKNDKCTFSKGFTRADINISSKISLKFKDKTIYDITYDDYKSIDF
# Assay: PBM E-score (8-mer binding enrichment) (E-score (-0.5 to 0.5)); higher = stronger / more preferred TF binding; most listed sequences are background and not binding sites
# Details: protein concentration: 200 nM; construct: GST-full length
# Procedure, shortened: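 PURExpress in vitro transcription/translation supplied GST-tagged yeast transcription factors, either full-length or DNA-binding domain. Applied at about 100-200 nM to universal all-10-mer Agilent arrays double-stranded by primer extension, the bound protein was detected with fluorescent anti-GST. E-scores, modified Wilcoxon-Mann-Whitney statistics, were given by the Universal PBM Analysis Suite to ungapped eight-base words pooled with their reverse complements after masliner normalisation.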
row,Sequence,PBM E-score
1,AATCCGGT,0.258
2,TATCTGCA,0.064
3,ACCTCCCG,-0.167
4,CAAGAGCC,-0.0371
5,CTTGAACA,0.0785
6,AAGCCGGA,0.331
7,AACGTCGC,-0.201
8,GGTGCATA,-0.18
9,CTGTAAGC,-0.161
10,CAAGATCG,0.0609
11,CTGTGGAA,0.0386
12,CACTGGGC,-0.0944
13,GCTAATCC,-0.0586
14,ATGTAATA,0.307
15,GCGGACCA,0.175
16,TTGAGAAA,0.228
17,TAATGCGA,-0.0147
18,CTTTCACC,0.127
19,AGTACACC,0.0346
20,CGCAGCTA,-0.0718
21,ATATACCG,0.166
22,ACAGCTTG,-0.18

row,Sequence,PBM E-score
1,CTGCCAGA,-0.113
2,ACTCCACT,-0.144
3,ACCGTCCG,0.0131
4,CCACTCTA,-0.144
5,GACACTCA,-0.144
6,AATTTTCA,0.192
7,CTGCTGGC,-0.272
8,AAATATTT,0.31
9,CACACGCA,-0.271
10,CACACCGG,0.0539
11,GGTAACAC,0.0853
12,GGTCCTGA,-0.158
13,CAGTGGTC,-0.165
14,CCGGTGCG,0.132
15,CAGTCACG,-0.15
16,CCTTATAC,-0.114
17,CCTGGTAG,-0.308
18,CAAACCAG,0.0367
19,CCCGAACC,0.113
20,CCTAAGCC,-0.144
21,ATAGCGCA,-0.0575
22,CGTGTATA,0.14

row,Sequence,PBM E-score
1,ACAATCAT,0.182
2,AGTGAATG,0.13
3,AAGCGAAG,-0.0381
4,ATGTCTTG,0.00936
5,TACGATCA,0.0937
6,GCGCAAGA,-0.0208
7,CCCTGAAC,-0.0717
8,GACTCTTA,0.105
9,CTCTGAGA,-0.0987
10,CCATGGCC,-0.313
11,CATCCAGC,-0.174
12,GGCGGAAC,-0.0912
13,AGGCGTCC,-0.117
14,GAGCTAGA,-0.0226
15,AACAAAAG,0.217
16,AGACCTAT,0.0655
17,CCTATTGA,0.101
18,AAGCCCAT,-0.187
19,AACATCAT,-0.0156
20,AAGGCCAA,-0.21
21,GCTCACCC,-0.144
22,CTGCCTTC,0.00298

row,Sequence,PBM E-score
1,GATGAGAC,0.0573
2,CTTACTAA,0.0616
3,CGCGAAAG,-0.0215
4,CGGGTCAG,0.0298
5,ACTAACCC,0.00259
6,GACGGAGA,0.277
7,TCGTGTAA,0.0513
8,AGTCATCG,-0.0677
9,ATTGCCCA,-0.133
10,CTGAGAAG,-0.0719
11,TGACGCCA,-0.149
12,CATATGGA,-0.00932
13,CCTACACC,-0.128
14,GCCTTAGA,-0.264
15,GAGCCGAC,-0.315
16,CGCCTATA,-0.0666
17,AAATTAAT,0.292
18,AGCTCTGC,-0.337
19,TGTACAAA,0.129
20,CTGTATAA,0.164
21,AGAGTTAG,0.0158
22,AATGTAGA,0.237

row,Sequence,PBM E-score
1,AGCTTGCG,-0.265
2,ATTCATAG,0.132
3,CCGGAGCA,0.307
4,ACCGAACA,0.121
5,CAATTGGC,-0.0753
6,GCTTGTAC,-0.0476
7,TCCATTAA,0.11
8,GCGCCAGA,-0.088
9,TTAGCAAA,0.178
10,GTATCCAC,-0.103
11,AAAGTGCG,0.19
12,GACATAGA,-0.0501
13,TACCGCCA,0.00318
14,CGTATGCC,-0.114
15,CTCAAAAG,-0.0421
16,TGTAATAA,0.315
17,CGCGTTCC,-0.0272
18,ATTCGACC,-0.193
19,AACCTGTC,-0.187
20,CTGATGAA,-0.0846
21,AGTTGGGA,-0.0611
